Data as given in patent US20210047410A1 (ONCOLMMUNE, published 2021).

T1: mouse B7-2 expressed on cells (CHO cells; mouse leukocytes) (mouse, UniProt P42082 24-309)
T1 construct: whole, on cells; also called mB7-2
T1 sequence (looked up): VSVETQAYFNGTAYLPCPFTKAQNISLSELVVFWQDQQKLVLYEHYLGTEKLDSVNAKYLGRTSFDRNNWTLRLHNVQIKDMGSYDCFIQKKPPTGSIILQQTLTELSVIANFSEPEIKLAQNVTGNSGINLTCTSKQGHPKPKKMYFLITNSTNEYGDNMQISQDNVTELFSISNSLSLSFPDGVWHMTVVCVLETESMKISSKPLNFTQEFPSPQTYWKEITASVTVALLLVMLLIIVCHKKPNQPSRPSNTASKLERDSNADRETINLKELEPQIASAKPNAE

T2: human B7-2-Fc (human, UniProt P42081 24-245, limits assumed)
T2 construct: Bought; also called hB7-2-Fc; not shown: Fc part; not described
T2 sequence (looked up): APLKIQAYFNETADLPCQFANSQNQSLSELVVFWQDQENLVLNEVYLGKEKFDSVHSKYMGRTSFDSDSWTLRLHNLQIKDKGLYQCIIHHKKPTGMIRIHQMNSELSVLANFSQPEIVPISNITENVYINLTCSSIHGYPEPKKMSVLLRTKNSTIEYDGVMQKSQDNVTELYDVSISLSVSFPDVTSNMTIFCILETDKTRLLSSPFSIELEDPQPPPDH

T3: GFP-tagged human B7-1 on CHO cells (human, UniProt P33681 35-288)
T3 construct: whole, on cells; also called B7-1-GFP; not shown: C-GFPSpark tag
T3 sequence (looked up): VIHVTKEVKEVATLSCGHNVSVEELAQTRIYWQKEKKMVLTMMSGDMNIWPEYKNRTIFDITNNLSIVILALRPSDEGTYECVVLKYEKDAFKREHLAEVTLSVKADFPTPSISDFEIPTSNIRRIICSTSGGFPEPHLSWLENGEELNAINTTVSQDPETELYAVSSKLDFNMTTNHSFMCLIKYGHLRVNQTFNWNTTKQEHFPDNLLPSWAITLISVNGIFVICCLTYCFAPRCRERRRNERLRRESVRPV

T4: GFP-tagged human B7-2 on CHO cells (human, UniProt P42081 24-329)
T4 construct: whole, on cells; also called B7-2-GFP; hB7-2-GFP-CHO; not shown: C-GFPSpark tag
T4 sequence (looked up): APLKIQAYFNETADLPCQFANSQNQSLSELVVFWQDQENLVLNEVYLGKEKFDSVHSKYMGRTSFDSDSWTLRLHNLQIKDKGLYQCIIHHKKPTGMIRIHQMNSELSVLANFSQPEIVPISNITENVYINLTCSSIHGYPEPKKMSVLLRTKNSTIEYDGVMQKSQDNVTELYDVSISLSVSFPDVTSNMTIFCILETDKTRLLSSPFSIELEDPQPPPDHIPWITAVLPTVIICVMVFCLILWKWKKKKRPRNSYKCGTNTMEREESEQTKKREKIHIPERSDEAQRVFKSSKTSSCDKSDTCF


Experiments:
[1] = target: T1, mouse B7-2 expressed on cells (CHO …); assay: flow cytometry, dissociation time course: biotinylated CTLA-4-Fc 200 ng/test on CHO cells expressing mB7-2, washed, kept in DPBS, PE-streptavidin
[2] = target: T2, human B7-2-Fc; assay: ELISA: hB7-2-Fc coated, biotinylated hCTLA-4-Fc varied, with 100 µg/ml hIgG-Fc
[3] = target: T3, GFP-tagged human B7-1 on CHO cells; assay: flow cytometry, cell-cell interaction: B7-1-GFP CHO cells and hCTLA-4 Y201V-OFP 293T cells co-incubated at 4 °C for 2 h [f]
[4] = target: T4, GFP-tagged human B7-2 on CHO cells; assay: flow cytometry, cell-cell interaction: B7-2-GFP CHO cells and hCTLA-4 Y201V-OFP 293T cells co-incubated at 4 °C for 2 h [h]

Row | binding result [3] | binding result [4] | Binder | binding result [1] | EC50 (read off the curve) [2] [µg/mL]
1 |  |  | human CTLA-4-Fc (Fc fusion, Bought; also called hCTLA-4-Ig; biotinylated CTLA-4-Fc; not shown: Fc part; not described) not shown | binds | ~0.02
2 | binds | binds | OFP-tagged human CTLA-4 Y201V on HEK293T cells (receptor, whole, on cells; also called CTLA-4^Y201V-OFP; hCTLA-4^Y201V-OFP-293T; not shown: OFP tag) not shown |  | 
